Measured values reported in PubChem BioAssay AID504845 (National Center for Advancing Translational Sciences (NCATS), 2011).
Hit rate of the full screen: of about 390,000 compounds, about 150 (0.038%) were called active. Inconclusive results, whose numbers are uncertain, are shown with a selection of clear calls. The call rests on the fitted dose curve; in most records, active means well fitted inhibition curve with a large enough effect; inconclusive means small, poorly fitted or top-dose-only effect; inactive means no such curve, though single readings can be large or run the other way. Potencies of inconclusive entries are doubtful fits and often do not repeat. Non-standard residues stand in square brackets, D forms with d. Residues, ends and D or L forms follow the SMILES beside them. *: point of attachment. Ac5c = NC1(C(=O)O)CCCC1; Cbz = O=C(OCc1ccccc1)*

molecular target: Regulator of G-protein signaling 4 (Homo sapiens) (UniProt P49798); assay: Inhibitors of Regulator of G Protein Signaling (RGS) 4: qHTS; details: Transcreener GDP fluorescence polarization, RGS4-accelerated GTP hydrolysis; series mostly up to 114 µM; activity change, negative = inhibition: at the top concentration; further: nearly all actives have a fitted effect of over 75% in size
Chain of UniProt P49798 (P49798 whole entry, looked up): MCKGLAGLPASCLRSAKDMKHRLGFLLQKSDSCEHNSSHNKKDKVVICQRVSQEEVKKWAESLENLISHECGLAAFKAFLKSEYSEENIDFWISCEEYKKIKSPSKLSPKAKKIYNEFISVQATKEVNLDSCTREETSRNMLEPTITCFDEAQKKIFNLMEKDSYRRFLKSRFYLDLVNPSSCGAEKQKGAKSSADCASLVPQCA
Outline: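 MLSMR compounds (23 nl, pin-transferred) preincubated 10 min at room temperature with a 500nM (2x) first reagent, then RGS4 at 900nM (2x) plus Transcreener GDP mix added; fluorescence polarization (620/688 nm) read before and after 90 min at 30 °C.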
On the % scale 0 is the no-effect control and ±100 the full control effect; potency means the concentration at half of the fitted maximal effect; tags describe the fitted curve by direction and shape.

Row | SMILES | Potency | activity change, negative = inhibition
1 | C[C@H](O)[C@H](O)[C@H]1CNc2nc(N)[nH]c(=O)c2N1 | inconclusive: 56.2 µM [inhibitor, partial curve, poor fit] | 
2 | COC(=O)c1ccc(COC(=O)CNC(=O)c2ccc(OC)cc2)cc1 |  | inactive: -2.62%
3 | COc1cc(OC)c(C2=NOC(C(=O)Nc3cc(C)nn3-c3ccccc3)C2)cc1Cl (centres undefined) | inconclusive: 89.1 µM [inhibitor, single point] | 
4 | Cc1ccc(SCC(=O)Nc2ccc(-c3nc4ccccc4[nH]3)cc2)cc1 |  | inactive: -10.9%
5 | CCCC1(c2ccccc2)NC(=O)N(C/C=C/Cl)C1=O (centres undefined) | inconclusive: 89.1 µM [inhibitor, single point] | 
6 | CC(=O)OCc1c(F)c(F)c(-n2nc(C)cc2C)c(F)c1F | inconclusive: 89.1 µM [inhibitor, single point] | 
7 | CC(C(=O)Nc1ccccc1Cl)N(c1ccccc1)S(C)(=O)=O (centres undefined) | inconclusive: 89.1 µM [inhibitor, single point] | 
8 | CCCn1c(SCC(=O)c2cc(C)n(-c3cc(C)on3)c2C)n[nH]c1=O |  | inactive: -35.5%
9 | CCc1ccc(OCC(O)CN2CCN(c3ccccn3)CC2)cc1 (centres undefined) |  | inactive: -3.02%
10 | COC(=O)COc1ccc(C2Nc3c(Cl)ccc(C(=O)O)c3C3C=CCC32)cc1 (centres undefined) | inconclusive: 39.8 µM [inhibitor, partial curve, poor fit] | 
11 | CCN(CC)S(=O)(=O)c1ccc(N/N=C/c2ccc(O)cc2)nc1 |  | inactive: -7.58%
12 | Cc1noc(C)c1COc1ccc(C(=O)Nc2ccccc2)cc1 |  | inactive: 10.6%
13 | COc1ccc(/C=N/NC(=O)c2cccnc2)cc1COc1ccc(NC(C)=O)cc1 |  | inactive: -2.56%
14 | COc1ccc(C(=O)Nn2c(CCC(=O)O)ccc2-c2ccc(C)cc2)cc1OC | inconclusive: 50.1 µM [inhibitor, partial curve, poor fit] | 
15 | Cc1ccc(C(C[N+](=O)[O-])c2c(N)n(C)c(=O)n(C)c2=O)cc1 (centres undefined) | inconclusive: 89.1 µM [inhibitor, single point] | 
16 | Cc1ccc(C(=O)Cn2c3c(sc2=N)CCCC3)cc1 |  | inactive: -39% [at 56.9 µM]
17 | CCN(CC)S(=O)(=O)c1ccc2oc(SCc3ccc(F)cc3)nc2c1 |  | inactive: -16.1%
18 | CC1CCCN(c2nc3ccsc3c(=O)s2)C1 (centres undefined) |  | inactive: 39.9%
19 | CCOC(=O)c1c(-c2ccccc2)csc1NC(=O)c1cc(-c2ccc(F)cc2)on1 | inconclusive: 17.8 µM [inhibitor, full curve, poor fit] | 
20 | CCc1ccc(Nc2nnc(SC(C)C(=O)NC3CC3)s2)cc1 (centres undefined) |  | inactive: -1.42%
21 | COc1ccc(/C(N)=N/OC(=O)CCCN2C(=O)c3ccccc3C2=O)cc1OC | inconclusive: 79.4 µM [inhibitor, single point] | 
22 | COc1ccc(OC(=O)c2c(C)nn(-c3ccccc3)c2C)cc1 |  | inactive: 7.88%
23 | Oc1ccc(C=Nc2cccc3ccccc23)c(O)c1 | inconclusive: 89.1 µM [inhibitor, single point] | 

Row | SMILES | Potency | activity change, negative = inhibition
24 | CN(C)C(CNC(=O)c1cccc(S(=O)(=O)N2CCN(c3ccc(F)cc3)CC2)c1)c1ccccc1 (centres undefined) |  | inactive: 20.9%
25 | CC1CN(C(=O)CCC(=O)NCCCc2ccccc2)c2ccccc2O1 (centres undefined) |  | inactive: -7.41%
26 | COc1nc(Cl)cn(-c2ccc(C)cc2)c1=O |  | inactive: 21.9%
27 | COc1ccccc1NS(=O)(=O)c1cc(NC(=O)COc2ccccc2F)ccc1N1CCOCC1 | inconclusive: 50.1 µM [inhibitor, partial curve, poor fit] | 
28 | COc1ccc(OC)c(S(=O)(=O)N/N=C\c2ccc3c(c2)OCO3)c1 |  | inactive: -3.68%
29 | CC(C)OC(=O)c1cn(-c2ccccc2)nc1-c1ccco1 | inconclusive: 31.6 µM [inhibitor, partial curve, poor fit] | 
30 | Cc1ccccc1/C=N\NC(=O)c1ccc(Cn2cccn2)o1 | inconclusive: 50.1 µM [inhibitor, partial curve, poor fit] | 
31 | Cc1[nH]n(-c2ncc(-c3ccccc3)s2)c(=O)c1C(c1ccc(Cl)cc1)C(C#N)C#N (centres undefined) | inconclusive: 56.2 µM [inhibitor, partial curve, poor fit] | 
32 | Nn1c(SCC(=O)Nc2cccnc2Cl)nnc1-c1ccccc1 | inconclusive: 17.8 µM [inhibitor, full curve, poor fit] | 
33 | COc1ccc(C(=O)COC(=O)CN2C(=O)C3C4CCC(C4)C3C2=O)cc1 (centres undefined) | inconclusive: 100 µM [inhibitor, single point] | 
34 | CC(=O)Nc1ccc(S(=O)(=O)Oc2ccc(C(=S)N3CCC(O)CC3)cc2)cc1 | inconclusive: 17.8 µM [inhibitor, full curve, poor fit] | 
35 | CN(C)c1ccsc1C(=O)NNS(=O)(=O)c1ccc(Cl)cc1 | inconclusive: 89.1 µM [inhibitor, single point] | 
36 | O=C(CNC(=O)OCc1ccccc1)NC1(C(=O)O)CCCC1 (Cbz-Gly-[Ac5c]-OH) | inconclusive: 89.1 µM [inhibitor, single point] | 
37 | Cn1c(N=NC(=O)c2ccccc2)c(O)c2ccccc21 | inconclusive: 44.7 µM [inhibitor, partial curve, poor fit] | 
38 | CCCCOC(=O)CNc1nnc(SCC(=O)OCC)[nH]c1=O | inconclusive: 79.4 µM [inhibitor, partial curve, poor fit] | 
39 | COCCCNc1nc2cc(OC)c(OC)cc2c2nc(-c3ccccc3)nn12 | inconclusive: 89.1 µM [inhibitor, partial curve, poor fit] | 
40 | S=c1[nH]nc(-c2ccc3ncccc3c2)n1-c1ccc2c(c1)OCCO2 | inconclusive: 100 µM [inhibitor, single point] | 
41 | O=C(CSc1ccc(-c2ccco2)nn1)c1cccc([N+](=O)[O-])c1 | inconclusive: 35.5 µM [inhibitor, partial curve, poor fit] | 
42 | Cc1cc(=O)c2c(o1)C(=O)c1occc1C2=O | inconclusive: 31.6 µM [inhibitor, full curve, poor fit] | 
43 | CCN(c1ccccc1)c1cc2ccccc2c(=O)[nH]1 | inconclusive: 79.4 µM [inhibitor, partial curve, poor fit] | 
44 | Nc1nonc1C(=O)N/N=C/c1cc(Br)ccc1O |  | inactive: -33%
45 | COc1cc(C(=S)N2CCN(c3ccccc3Cl)CC2)cc(O)c1O | inconclusive: 79.4 µM [inhibitor, partial curve, poor fit] | 
46 | Cc1cc(NC(=O)c2ccc(NC(=O)c3cccs3)cc2)no1 | inconclusive: 79.4 µM [inhibitor, partial curve, poor fit] | 

Row | SMILES | Potency | activity change, negative = inhibition
47 | Cc1[nH][nH]c(=O)c1C(c1ccc(-c2ccc(Cl)c(Cl)c2)o1)c1c(C)[nH][nH]c1=O | inconclusive: 31.6 µM [inhibitor, partial curve, poor fit] | 
48 | CCOCCn1c(SCC(=O)OCc2ccccc2)nc2c1c(=O)[nH]c(=O)n2C | inconclusive: 100 µM [inhibitor, partial curve, poor fit] | 
49 | Cc1ccc(C(OCCN(C)C)c2cccc(C(F)(F)F)c2)cc1 (centres undefined) |  | inactive: -8.78%
50 | CCC(CC)NC(=O)/C=C/c1ccccc1Cl | inconclusive: 50.1 µM [inhibitor, partial curve, poor fit] | 
51 | CCC(=O)OCCNc1cc(Sc2nccn2C)c2nonc2c1[N+](=O)[O-] | inconclusive: 50.1 µM [inhibitor, partial curve, poor fit] | 
52 | Nc1ccccc1C(=O)C[C@H](N)C(=O)O | inconclusive: 0.15 µM [inhibitor, full curve, poor fit] | 
53 | CCOc1ccc(-c2cn3c(n2)sc2cc(C(=O)NCCCc4ccccc4)ccc23)cc1 |  | inactive: 2.99%
54 | CCCCOc1ccc(C(=O)CCN2CCCCC2)cc1 | inconclusive: 17.8 µM [inhibitor, full curve, poor fit] | 
55 | COc1ccccc1-c1nnc(SCC(=O)NC2CCCCC2)o1 | inconclusive: 35.5 µM [inhibitor, partial curve, poor fit] | 
56 | Cc1cccc(C)c1NC(=O)CCCCCNS(=O)(=O)c1ccccc1 | inconclusive: 50.1 µM [inhibitor, partial curve, poor fit] | 
57 | CC1=NOC(=O)/C1=C\c1ccc(-c2ccccc2Br)o1 |  | inactive: -132%
58 | Cc1ccc(NC(=O)C2CCN(S(=O)(=O)c3ccc(Cl)c(C(F)(F)F)c3)CC2)nc1 |  | inactive: 10.3%
59 | O=C(N/N=C/c1cccnc1)c1cccc(NC(=O)c2cccc(Br)c2)c1 |  | inactive: -22.6%
60 | Cc1oc(/N=C/c2ccc(Cl)cc2Cl)c(C#N)c1C | inconclusive: 79.4 µM [inhibitor, partial curve, poor fit] | 
61 | CCCCC1=NN2C(=N)CC(=O)N=C2S1 |  | inactive: -27.6%
62 | CCOC(=O)C(C)Oc1cccc2c(=O)n(CC(=O)Nc3ccc4c(c3)OCCO4)ccc12 (centres undefined) | inconclusive: 0.946 µM [inhibitor, full curve, poor fit] | 
63 | Cc1cc(Cl)ccc1OCC(=O)NCCOc1nc(N2CCOCC2)nc(N2CCOCC2)n1 | inconclusive: 89.1 µM [inhibitor, single point] | 
64 | COc1cccc(/C=N/NC(=O)NC23CC4CC(CC(C4)C2)C3)c1O |  | inactive: -0.103%
65 | COc1ccc(-c2cc(=O)oc3cc(OCC(=O)N4CCOCC4)ccc23)cc1 |  | inactive: 11.4%
66 | CCOc1ccc(Cl)cc1S(=O)(=O)N1CCC(C(=O)NCc2ccco2)CC1 |  | inactive: -21.4%
67 | Cc1c(C(=O)N/N=C/c2ccc(-c3ccccc3[N+](=O)[O-])o2)sc(N)c1C#N | inconclusive: 17.8 µM [inhibitor, full curve, poor fit] | 
68 | CC(C(=O)Nc1ccccc1-c1ccccc1)N1CCN(Cc2ccccc2)CC1 (centres undefined) | inconclusive: 44.7 µM [inhibitor, partial curve, poor fit] | 
69 | CC(C)(C)c1cc(=O)n2c(C#N)c(C#N)nc2[nH]1 |  | inactive: 19.5%
